Here are results for 45 compounds from publication PMC4336329 (PLoS ONE, 2015).

The whole screen tested about 310,000 compounds, of which about 14,000 (4.5%) showed an effect of 50% or more. Effects have a minus sign here. Some of the results follow.
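Further: peak tail current of the secondary pulse compared with the same well before compound.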

The target of the test is human ether-à-go-go-related gene (hERG) potassium channel (human, UniProt Q12809). The test is described as follows: primary screen, population patch clamp on CHO cells stably expressing hERG.
human ether-à-go-go-related gene (hERG) potassium channel, sequence (Q12809 whole entry, looked up): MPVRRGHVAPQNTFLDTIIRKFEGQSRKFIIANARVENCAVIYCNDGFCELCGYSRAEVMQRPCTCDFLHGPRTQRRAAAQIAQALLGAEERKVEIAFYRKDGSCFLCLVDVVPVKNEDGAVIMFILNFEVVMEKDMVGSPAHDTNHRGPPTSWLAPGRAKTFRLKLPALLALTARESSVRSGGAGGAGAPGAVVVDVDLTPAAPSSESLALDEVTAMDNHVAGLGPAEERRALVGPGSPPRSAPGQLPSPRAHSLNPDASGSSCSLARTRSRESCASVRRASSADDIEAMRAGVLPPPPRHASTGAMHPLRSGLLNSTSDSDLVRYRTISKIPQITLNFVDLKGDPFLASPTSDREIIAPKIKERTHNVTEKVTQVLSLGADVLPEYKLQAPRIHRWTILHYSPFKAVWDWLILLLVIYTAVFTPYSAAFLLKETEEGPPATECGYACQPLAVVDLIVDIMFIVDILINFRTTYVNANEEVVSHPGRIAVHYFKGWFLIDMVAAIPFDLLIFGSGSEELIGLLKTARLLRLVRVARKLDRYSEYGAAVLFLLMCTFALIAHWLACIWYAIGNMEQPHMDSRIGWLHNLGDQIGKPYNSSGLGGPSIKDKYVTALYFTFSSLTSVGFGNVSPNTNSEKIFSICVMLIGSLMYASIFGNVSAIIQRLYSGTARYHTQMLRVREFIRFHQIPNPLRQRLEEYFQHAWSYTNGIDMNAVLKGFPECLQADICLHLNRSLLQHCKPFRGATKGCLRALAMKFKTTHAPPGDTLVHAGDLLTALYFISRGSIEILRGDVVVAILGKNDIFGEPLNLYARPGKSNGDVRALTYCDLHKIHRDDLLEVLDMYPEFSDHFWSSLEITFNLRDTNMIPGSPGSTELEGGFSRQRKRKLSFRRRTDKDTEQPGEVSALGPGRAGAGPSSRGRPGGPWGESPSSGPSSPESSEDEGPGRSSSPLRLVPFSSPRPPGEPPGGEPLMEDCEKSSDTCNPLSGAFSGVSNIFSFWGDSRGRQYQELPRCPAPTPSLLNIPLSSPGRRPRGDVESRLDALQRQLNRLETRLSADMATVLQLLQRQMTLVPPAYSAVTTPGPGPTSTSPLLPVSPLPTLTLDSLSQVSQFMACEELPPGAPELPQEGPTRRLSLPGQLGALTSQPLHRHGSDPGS
With `O=C(CSc1nnnn1C1CCCCC1)Nc1ccccc1N1CCOCC1`, the “hERG current change (%, negative = inhibition) at 10uM” value is -6.54%.
The value for `CC(=O)NC1=NC(=O)CS1` was 0.147%.
Take `COCCn1c(C)cc(C(=O)CSc2nc(C)nc3sc4c(c23)CCC4)c1C`: the “hERG current change (%, negative = inhibition) at 10uM” value came out at 11.6%.
The value for `COc1cc(/C=N/n2c(=S)[nH]nc(C)c2=O)cc([N+](=O)[O-])c1O` was 20.4%; that for `O=C(CC1C(=O)NCCN1Cc1ccc(Cl)c(F)c1)NCCc1cccnc1` (stereo not drawn) was -12.7%.
The value for `Cc1occc(=O)c1OCc1ccc(Cl)cc1Cl` was -9.81%.
Consider `Cc1nc2ccccc2c(=O)n1-c1ccc(Cl)c(Cl)c1`, for which the “hERG current change (%, negative = inhibition) at 10uM” value was -8.26%.
The value for `Cc1ccc(N2CCN(S(=O)(=O)c3ccc4c(c3)oc(=O)n4C)CC2C)cc1` (stereo not drawn) was 9.52%; that for `CC(NC(=O)COC(=O)COc1ccc(C(=O)c2ccccc2)cc1)c1ccccc1` (stereo not drawn) was -1.27%; that for `O=C(CCc1nnc(CCCc2ccccc2)o1)NC(C1CC1)C1CC1` was 2.96%.
The value for `CCCN(CC(=O)Nc1ccccc1OC)C(=O)CCNC(=O)c1ccccc1OC` was -2.16%; that for `CCN(CC)Cc1c(O)ccc2c(=O)c(-c3ccccc3OC)coc12` was 15.7%; that for `CCCNC(=O)Cn1cccc1C(=O)c1ccccc1` was 14.7%.
Regarding `O=C(Nc1cccc2ccccc12)c1ccc([N+](=O)[O-])o1`, the “hERG current change (%, negative = inhibition) at 10uM” value is on record as -3.17%.
The value for `O=C(NC1=NCCS1)c1ccc(Cl)s1` was 13.7%; that for `COc1cccc(C(=O)C2CCCN(Cc3cnn(C(C)C)c3)C2)c1` (stereo not drawn) was -43.6%.
The value for `COCC(=O)N(Cc1nc2ccccc2c(=O)[nH]1)Cc1cccs1` was 11.4%; that for `CCOc1ccccc1N1CCN(C(=S)Nc2ccc(S(N)(=O)=O)cc2)CC1` was 0.536%; that for `COc1ccc(S(=O)(=O)N2CCOCC2)cc1NC(=O)CSc1nnnn1C1CC1` was -15.7%.
The value for `Cc1ccc(NS(=O)(=O)c2ccc(NC(=O)CSc3ccc(Cl)cc3)cc2)c(C)c1` was 9.71%; that for `NC(=S)N/N=C/c1cn(CCC(=O)O)nc1-c1cccc(Br)c1` was 17%.
As to `CCOC(=O)CN1C(=O)SC(Nc2ccc(C)cc2)C1=O` (stereo not drawn), the “hERG current change (%, negative = inhibition) at 10uM” value is given as 27.1%.
The value for `Cc1oc(-c2ccccc2F)nc1CS(=O)CC(=O)NC1CC1` (stereo not drawn) was 9.38%; that for `O=[N+]([O-])CC(c1ccccc1)P(=O)(c1ccccc1)c1ccccc1` (stereo not drawn) was 25.5%; that for `CC(C)CCNC(=O)NC(=O)COc1ncnc2sccc12` was -17.4%.
The value for `CCOc1ccc(S(=O)(=O)NCc2ccc(F)cc2)c2cccnc12` was -15.1%; that for `COC(=O)c1cccc(Cn2c(Cl)c(/C=N/Nc3ccccc3C)sc2=O)c1` was 3.98%.
As for `Cc1ccc(OCc2cc(C(=O)NCC(C)c3ccccc3)no2)cc1C` (stereo not drawn), the “hERG current change (%, negative = inhibition) at 10uM” value came to 2.96%.
The value for `O=c1oc(-c2cccnc2)nc2ccccc12` was 5.21%; that for `O=C(Nc1ccc(Cl)cc1)Nc1ccccc1C(=O)O` was 14.1%; that for `Cc1oc(-c2ccc(Cl)cc2)nc1CN1CCC(C(=O)N2CCN(Cc3ccccc3)CC2)CC1` was -69.1%.
Take `CC1CC(C)CN(C(=O)C(Cc2ccccc2)n2cccc2)C1` (stereo not drawn): the “hERG current change (%, negative = inhibition) at 10uM” value was -1.62%.
Take `Cc1ccc(C(=O)COC(=O)C(C)N2C(=O)C3C4CCC(C4)C3C2=O)cc1` (stereo not drawn): the “hERG current change (%, negative = inhibition) at 10uM” value worked out at 0.779%.
For the compound `Cc1cccc(NC(=O)CN2C(=O)N/C(=C\c3ccc(-c4cccc(C(=O)O)c4)o3)C2=O)c1`, the “hERG current change (%, negative = inhibition) at 10uM” value is given as 19.3%.
`COc1ccc(C(=O)Nc2ccc(S(=O)(=O)Nc3nccc(C)n3)cc2)cc1OC`: the “hERG current change (%, negative = inhibition) at 10uM” value stood at 9.61%.
The value for `Cc1cc(/C=N/N2CCN(C)CC2)c(C)n1-c1ccc(Cl)cc1` was -13.5%; that for `CC(C)=CCN1CCN(Cc2cccn2-c2ccccn2)CC1CCO` (stereo not drawn) was -55.4%; that for `COc1ccc(/C(N)=N/O)cc1O` was 5.51%.
The value for `Cl.Oc1ccc(Cl)cc1CNCc1ccc(C(F)(F)F)cc1` was -28%.
The value for `O=C(/C=C/c1ccncc1)c1ccc2c(c1)OCCO2` was 0.109%.
For `CCOC(=O)CSC1=NC(=O)/C(=C\c2ccc(OC(C)=O)cc2)S1`, the “hERG current change (%, negative = inhibition) at 10uM” value worked out at 13.1%.
The value for `COc1ccc(CN2CCNC(=O)C2CC(=O)N(C)Cc2ccon2)c(F)c1` (stereo not drawn) was 9.55%; that for `CC(=O)Nc1cccc(N(C)S(C)(=O)=O)c1` was 6.54%; that for `Cc1ccc(C(=O)N/C(=C\c2ccc(-c3ccc([N+](=O)[O-])cc3)o2)C(=O)NC2CCS(=O)(=O)C2)cc1` (stereo not drawn) was -28.2%.
The value for `C=C(C)c1cccc(C(C)(C)NC(=O)NCCCn2ccnc2)c1` was -2.4%.
